# The other results are listed elsewhere or left out. The main result of the screen is listed elsewhere. These columns were measured beside it and carry no call. Most of these compounds were active or inconclusive in the main read-out, so they are no random draw. The note in brackets gives the kind of curve behind each potency; many fits are weak.
# Assay: Cell-based coincidence reporter assay to measure PMP22 gene transcription in S16 Pmp22-F2sN cells - Confirmatory screen (AID 1508646)
# Settings: S16 Schwann cells Pmp22-F2sN, dual luciferase, 24 h; measured here: FLuc reporter channel
# How it was run: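 Coincidence reporter read as sequential FLuc then NLuc luminescence (Nano-Glo Dual-Luciferase, 10 min each). Engineered S16 Pmp22-F2sN Schwann cells, 500-1,000 per well in DMEM/10% FBS, were exposed to compounds for 24 h, 37C.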
# Tags describe the fitted curve by direction and shape.
row,Structure (SMILES),AC50
1,O=S(=O)(NCC(c1ccco1)S(=O)(=O)c1cccs1)c1ccc(Cl)cc1 (configuration not stated),"9.68 µM [falling, full curve]"
2,O=C(Nc1cccc(-c2nc3ccccc3o2)c1)C(F)(F)F,"1.09 µM [rising, full curve]"
3,COc1ccccc1NC(=O)Cn1nnc(C(=O)NCc2cccs2)c1N,"3.06 µM [falling, partial curve]"
4,CCCn1c2ccccc2c2cnn(CC(=O)NCC3CCN(Cc4ccc(C)cc4)CC3)c(=O)c21,"24.3 µM [falling, partial curve]"
5,CC(C)OCCCNC(=O)c1ccc(-n2c(-c3ccccc3)cc3c2CCCC3)cc1,"21.7 µM [falling, partial curve, poor fit]"
6,CCCOc1ccc(CN2C(=O)C(=O)c3cccc(C)c32)cc1,"24.3 µM [falling, partial curve]"
7,CCCN1CCN(CCCNC(=O)Cn2c(-c3cccs3)cc3cc(Cl)ccc32)CC1,"21.7 µM [falling, partial curve]"
8,Cc1ccc2nc3c(c(Nc4ccc(C)c(C)c4)c2c1)CCC3,"21.7 µM [falling, partial curve, poor fit]"
9,Fc1ccc(Nc2c3c(nc4ccccc24)CCC3)cc1,"19.3 µM [falling, partial curve]"
10,COc1cccc(NC(=O)N(Cc2cn(C)c3ccccc23)C2CCCCC2)c1,"27.3 µM [falling, partial curve]"
11,CCOc1ccc(NC(=O)CSc2oc(-c3ccccc3)nc2S(=O)(=O)c2ccc(Cl)cc2)cc1,"19.3 µM [falling, partial curve]"
12,O=C(Nc1nc2ccc(F)cc2s1)c1nc(S(=O)(=O)Cc2ccccc2F)ncc1Cl,"13.7 µM [falling, partial curve]"
13,Cc1ccc(CNC(=O)c2ccc(Nc3nc4ccccc4n4nnnc34)cc2)cc1,"7.69 µM [falling, full curve]"
14,Cn1nnnc1SCCCNCc1ccccc1OCc1ccccc1Cl,"24.3 µM [falling, partial curve]"
15,Cc1ccc(-n2c(=O)c3ccc(C(=O)NCc4ccccc4Cl)cc3n(CC(=O)Nc3ccc(C)cc3C)c2=O)cc1,"6.11 µM [falling, full curve]"
16,CCOC(=O)c1cc2c(=O)n3ccccc3nc2n(C(C)C)c1=NC(=O)c1c(-c2c(F)cccc2Cl)noc1C,"8.62 µM [falling, partial curve, poor fit]"
17,Cc1cc(Nc2sc(C(=O)c3ccc(F)cc3)c(N)c2C(=O)Nc2ccc(F)cc2)ccc1Cl,"6.11 µM [falling, full curve]"
18,CCS(=O)(=O)c1ncc(Cl)c(C(=O)Nc2c(C(=O)c3ccc(C)cc3)oc3ccccc23)n1,"7.69 µM [falling, full curve]"
19,CCc1nnc(NC(=O)c2nc(S(C)(=O)=O)ncc2Cl)s1,"15.3 µM [falling, partial curve]"
20,COc1ccccc1CNC(=O)CCCCn1c(=O)c2ccccc2n(Cc2ccccc2C)c1=O,"27.3 µM [falling, partial curve, poor fit]"
21,Cc1cccc(-n2c(=O)c3c(c4cc(C)ccc4n3C)n(CC(=O)NCCC3=CCCCC3)c2=O)c1,"17.2 µM [falling, partial curve]"
22,Cc1oc(-c2cccc(Cl)c2)nc1CN1CCC(C(=O)NCCCN2CCN(c3cccc(Cl)c3)CC2)CC1,"21.7 µM [falling, partial curve]"
23,Cc1ccc(CN2C(=O)C(O)(c3c(C)[nH]c4ccccc34)c3ccccc32)cc1 (configuration not stated),"17.2 µM [falling, partial curve]"
24,Cc1ccc(Cl)cc1Nc1nn2c(=O)c3ccc(C(=O)NCc4cccs4)cc3nc2s1,"21.7 µM [falling, partial curve]"
25,CCOC(=O)c1cc2c(=O)n3ccccc3nc2n(CC(C)C)c1=NC(=O)COc1ccc(Cl)cc1,"24.3 µM [falling, partial curve]"
26,CCCn1c(=N)c(C(=O)NCc2ccccc2)cc2c(=O)n3cccc(C)c3nc21,"24.3 µM [falling, partial curve, poor fit]"
27,COc1cccc(-n2c(SCC(=O)c3ccc(Cl)cc3)nc3c([nH]c4ccccc43)c2=O)c1,"10.9 µM [falling, partial curve]"

# From PubChem BioAssay (NCATS)
